This is an account of results in ChEMBL document CHEMBL4888484, “Replenishing the malaria drug discovery pipeline: Screening and hit evaluation of the MMV Hit Generation Library 1 (HGL1) against asexual blood stage Plasmodium falciparum ,using a nano luciferase reporter read-out” (2022).

Screen size: about 150,000 compounds; about 540 (0.36%) showed an effect of 50% or more. This is one part of the list.

In this assay the test system is Plasmodium falciparum. Nature of the assay: Primary screen in NF54 nanoGlo assay, in single point, at 2uM, 72h; a lower Z score goes with more inhibition. It is filed as functional, Erythrocyte. The settings on record: timepoint 72 hour.
By % Inhibition is commonly meant the relative decrease from the control value, in per cent. For `Cc1nnc(CN(C)Cc2cnc(NCc3ccccc3)nc2)o1`, the “% Inhibition” value was found to be 2% and the Z score is on record as -0.36.
Regarding `CC(C)(C)c1cc(NCc2ccc(F)c(F)c2)n(C(C)(C)C)n1`, the “% Inhibition” value is listed as -1% and the Z score is reported as 0.2.
`CC1(C)CC[C@@H]1NC(=O)c1ccc(C(F)F)o1`: the “% Inhibition” value is -4% and the Z score is listed as 0.85.
For `COCCN(C(=O)c1coc(CN2CCN(c3ccccc3F)CC2)n1)C(C)C` the same measures were 1% and -0.1.
For `c1ccc(CN2CC[C@H](N3CCOCC3)C2)cc1`, in that order: 3% and -0.34.
Turning to `C#CCCC1(CCC(=O)N2CCN(c3cnccc3C)CC2)N=N1`, the “% Inhibition” value is -8% and the Z score turned out to be 0.97.
With `c1ccc(-c2nnc(N3C[C@@H]4NCCO[C@H]4C3)s2)cc1`, the “% Inhibition” value is recorded as -14% and the Z score was 1.54.
For `Cc1nc(C)n(C[C@H]2CCCCN2c2nc3ccccc3o2)n1`, in that order: -5% and 0.67.
`CC[C@@H](CO)NS(=O)(=O)c1cc(C)ccc1OC`: the “% Inhibition” value was -1% and the Z score turned out to be 0.11.
`CCCN(C)C(=O)[C@H]1CCCN(c2cnc3nccnc3c2)C1`: the “% Inhibition” value is -4% and the Z score amounted to 0.67.
For `CCOC(=O)C1CCN(c2nnnn2[C@H]2CC(=O)N(CC)C2)CC1`, the “% Inhibition” value was -4% and the Z score is listed as 0.48.
As to `C[C@H]1CCN(C(=O)c2ccnnc2)CC12CCC2`, the “% Inhibition” value is -28% and the Z score is listed as 2.99.
With `Cc1cccc(C(=O)N2c3ccccc3NC(=O)[C@@H]2CC(=O)Nc2cccc(Cl)c2)c1`, the “% Inhibition” value is on record as -4% and the Z score was found to be 0.59.
On to `CCO[C@H]1C[C@@H](O)C12CCN(C(=O)c1cc(C3CC3)no1)CC2`, for which the “% Inhibition” value was 3% and the Z score is listed as -0.58.
As for `Cc1c(NC(=O)c2cc(NC(=O)C(C)C)c(F)cc2F)cnn1-c1ccccc1`, the “% Inhibition” value is -2% and the Z score was found to be 0.2.
For `O=C(CN1c2cc(F)ccc2CS1(=O)=O)NCC1CCC1`, the “% Inhibition” value is -12% and the Z score is 1.48.
For the compound `COc1cc(C)c(CN2CCNC(=O)[C@@H]2Cc2ccccc2)cc1C`, the “% Inhibition” value was -10% and the Z score is 1.65.
As to `COc1ccc(-c2cc(N(C)C[C@H]3CCCS(=O)(=O)C3)n[nH]2)cc1`, the “% Inhibition” value was -10% and the Z score was determined as 0.96.
Consider `O=C(c1ccc(-c2ccccc2)o1)N1CCNCC1`, for which the “% Inhibition” value was -10% and the Z score was determined as 1.34.
Turning to `O=S(=O)(C[C@H]1CCCC1(F)F)NCc1ccc2c(n1)CCCC2`, the “% Inhibition” value is 1% and the Z score is on record as -0.2.
For the compound `O=C(N[C@H](c1ccccc1)C1CCC1)N1CCOC2(CCC2)C1`, the “% Inhibition” value was determined as 38% and the Z score was -4.92.
Consider `COc1cccc(Nc2nc(C)c(C(=O)Nc3ccc(Br)cc3F)s2)c1`, for which the “% Inhibition” value is -6% and the Z score stood at 0.89.
As to `Cc1cc(CNc2cnccn2)cc(N2CCCC2)n1`, the “% Inhibition” value worked out at 15% and the Z score was -2.01.
Consider `CCn1nccc1C(=O)N1CCC(CCn2c(C)cnc2COC)CC1`, for which the “% Inhibition” value is given as -4% and the Z score was 0.45.
